This is an account of results in PubChem BioAssay AID1346428 (National Center for Advancing Translational Sciences (NCATS), 2018).

SMILES strings stand for the structures. About 1,200 (2.5%) of roughly 48,000 compounds were called active. Not shown: some 2% with an inconclusive outcome.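 Rule for the calls: active = activation of at least 60% and not above a set upper limit (about 1 call in 100 departs from these limits); inconclusive = activation of 40% to 60%, or above that upper limit; inactive = activation under 40%.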 This is one part of the list.

Chain of UniProt O75388 (O75388 whole entry, looked up, the tested form may be a part): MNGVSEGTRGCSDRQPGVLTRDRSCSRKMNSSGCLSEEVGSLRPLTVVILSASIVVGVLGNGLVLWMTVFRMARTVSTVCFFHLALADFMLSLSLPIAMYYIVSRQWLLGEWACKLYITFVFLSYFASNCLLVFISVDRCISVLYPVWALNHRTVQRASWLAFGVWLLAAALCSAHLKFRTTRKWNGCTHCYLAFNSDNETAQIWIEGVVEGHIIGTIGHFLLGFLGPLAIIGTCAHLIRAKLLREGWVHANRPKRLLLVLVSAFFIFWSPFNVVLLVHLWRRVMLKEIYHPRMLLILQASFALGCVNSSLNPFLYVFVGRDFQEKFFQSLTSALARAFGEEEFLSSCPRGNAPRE

The target of the assay is Probable G-protein coupled receptor 32 (Homo sapiens) (UniProt O75388). Kind of assay: qHTS for Agonists of Human Resolvin D1 Receptor DRV1. Note: 0% is about no effect. The conditions noted are these: CHO-K1 GPR32 beta-arrestin PathHunter luminescence, 90 min; at 76.9 µM; hits give high values; zero percent set by DMSO-only wells. Summed up:
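PathHunter enzyme-fragment complementation, CHO-K1 GPR32 stable line; 2,500 cells/well, overnight attach; cpd 90 min 37 °C 5% CO2; detection reagent 1 h RT; chemiluminescence. DMSO = EC0.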
(Quantitative high-throughput screening tests each substance at several concentrations.)
Take `Cc1ccc(NC(=O)CSc2nc3ccccc3nc2Cc2ccccc2F)cc1F`: the activation is inactive: 3.62%.
The figure for `Cc1nn(S(=O)(=O)c2ccc(C(C)C)cc2)c(C)c1S(=O)(=O)N1CCCCCC1` is inactive: -3.01%; for `COc1ccc(-c2nsc(NC(=O)COc3ccc(C)c(C)c3)n2)cc1` it is inactive: -6.88%.
The figure for `CCc1ccccc1NC(=O)C1(S(=O)(=O)c2ccc(Cl)cc2)CC1` is inactive: -29.6%.
For the molecule `Cc1ccc(C)c(N2CCN(C(=O)c3cc4ccc5cccnc5c4[nH]3)CC2)c1`, the activation was inactive: -21.4%.
As for `CCOC(=O)c1c(C)oc2ncnc(Nc3ccc(F)cc3Cl)c12`, the figure is inactive: -3.48%.
The figure for `Cc1ccc(OCC(=O)Nc2ccc(Cl)c(-c3nc4ncccc4o3)c2)cc1C` is inactive: 36%; for `Cc1cc(C)cc(NC(=O)CN2C(=O)CSc3ccc(S(=O)(=O)N(C)C)cc32)c1` it is inactive: -14.7%.
The figure for `O=C(COc1ccc(F)cc1)Nc1ccc(OCc2cc(=O)n3ccsc3n2)cc1` is inactive: -2.57%.
On to `Cc1cccc(NC(=O)c2cccc(N3CCCS3(=O)=O)c2)c1`, for which the activation was inactive: 15.4%.
As for `COc1ccc(NS(=O)(=O)c2cc(-c3onc(C)c3C)ccc2C)c(OC)c1`, the figure is inactive: -15.3%; as for `CCC1CN(C(=O)N2CCC(C(=O)NCCCc3ccccc3)CC2)c2cc(C)ccc2O1` (stereo not drawn), inactive: -20.9%.
As to `Cc1ccccc1NC(=O)Cn1c(=O)n(CCC(=O)N2CCc3ccccc3C2)c(=O)c2ccccc21`, the activation is inactive: 9.34%.
On to `Cc1ccc(CNC(=O)CN2Cc3ccccc3C2=O)cc1`, for which the activation is inactive: 9.5%.
Consider `COc1ccc(NC(=O)CCS(=O)(=O)c2cc3c(cc2C)NC(=O)CO3)cc1Cl`, for which the activation was inactive: -2.34%.
As for `Cc1ccc(Cl)cc1NC(=O)c1sc2nc(C)c(C)c(C)c2c1N`, the figure is inactive: 37.9%; as for `CCOC(=O)c1ccccc1NC(=O)N(Cc1ccc(CC)cc1)Cc1cn[nH]c1-c1ccc(OC)cc1`, inactive: -31.7%.
With `Cc1ccc(C2CC(=O)n3nc(-c4ccc(F)cc4)nc3S2)cc1` (stereo not drawn), the activation is inactive: 24.7%.
For the molecule `CCCc1cnc2c(c1SCC(=O)Nc1ccc([N+](=O)[O-])cc1)c(=O)n(C)c(=O)n2C`, the activation is inactive: -4.89%.
With `Cc1ccc(NC(=O)Cn2c(=O)n(CCC(=O)N3CCc4ccccc4C3)c(=O)c3ccccc32)c(C)c1`, the activation was inactive: -9.6%.
Regarding `COc1ccc(C2c3c(-c4ccccc4)n[nH]c3C(=O)N2c2ccc(C(=O)O)cc2)c(OC)c1` (stereo not drawn), the activation was inactive: 8.92%.
As for `COC(=O)c1ccc2c(c1)sc(=NC(=O)c1ccc(S(=O)(=O)N3CCCCC3)cc1)n2C`, the figure is inactive: 6.27%; as for `Cc1ccc(-c2cnc(C3CC3)o2)cc1S(=O)(=O)Nc1cccc(C#N)c1`, inactive: 21.5%; as for `COc1cc(NC(=O)Cn2c(-c3ccccc3)cc(C(C)=O)c2C)cc(OC)c1`, inactive: -13.2%.
As for `Cc1ccc(-c2c(CN3CCN(c4cccc(C)c4C)CC3)csc2C)cc1`, the activation was inactive: -21.9%.
Consider `CN(Cc1ccccc1)C(=O)CSc1c2c(nc3ccc(Cl)cc13)CCCC2`, for which the activation was inactive: -9.96%.
The figure for `Cc1cc(O)c(C(c2ccccc2)N2CCC(C)CC2)c(=O)n1Cc1ccco1` (stereo not drawn) is inactive: 3.01%; for `Cc1ccc(CCNC(=O)c2cc(-c3ccccc3)n[nH]2)cc1` it is inactive: 32.3%.
Regarding `CC(=O)c1ccc(NC(=O)CSc2nnc3ccc(-c4ccc(F)cc4)nn23)cc1`, the activation was inactive: 10.1%.
As for `CCN(C(=O)c1sc2nc3n(c(=O)c2c1C)CCCC3)c1ccccc1F`, the figure is inactive: -28.8%.
For `Cc1cccc(NC(=O)C2CCCN2S(=O)(=O)c2cccc3nsnc23)c1C` (stereo not drawn), the activation is inactive: 8.79%.
As for `CN(C)c1ccc(C(CNC(=O)c2ccc(C(C)(C)C)cc2)N2CCCC2)cc1` (stereo not drawn), the activation was inactive: -15.4%.
As for `Cc1cn2c(=O)cc(COc3ccc(NC(=O)c4ccc(C(C)(C)C)cc4)cc3)nc2s1`, the figure is inactive: -0.341%.
The figure for `COc1ccc(CNC(=O)CCc2c(C)nn(-c3ccc(N4CCOCC4)nn3)c2C)c(OC)c1` is inactive: 6.73%; for `CCC1=C(c2ccc(C)cc2)S(=O)(=O)N=C1N1CCC(C(=O)Nc2ccccc2C(=O)OC)CC1` it is inactive: 18.1%.
As for `CCOC(=O)c1ccc(NC(=O)CN2C(=O)C(C)(C)c3ccccc32)cc1`, the figure is active: 109%.
As to `Cc1ccc(C)c(NC(=O)c2cnn(-c3ccc(F)cc3F)c2C2CCNCC2)c1`, the activation is inactive: 19%.
On to `Fc1ccccc1C(NCCc1ccc(Cl)cc1)c1nnc(-c2ccccc2)o1` (stereo not drawn), for which the activation was inactive: -34.7%.
The figure for `CCCC12CN3CC(CCC)(CN(C1)C3c1ccc(OCc3ccccc3)cc1)C2=O` (stereo not drawn) is inactive: -1.87%; for `Cc1cccc(C)c1NC(=O)CCSc1nc(-c2ccc3c(c2)OCO3)cc(C(F)(F)F)n1` it is inactive: -1.52%; for `O=C(CSc1ncc2c(n1)-c1ccccc1N(Cc1ccc(Cl)cc1)S2(=O)=O)c1ccc(Cl)cc1` it is inactive: -15.9%.
With `COc1ccccc1NC(=O)CN(C)S(=O)(=O)c1cccc2cccnc12`, the activation was inactive: -7.09%.
As for `Cc1ccc(Nc2ccc(N3CCN(C(=O)c4cccc([N+](=O)[O-])c4)CC3)nn2)cc1`, the activation is inactive: -17.6%.
The figure for `CC(=O)N1CCc2c(sc3c2c(=O)n(CCc2ccccc2)c(=O)n3Cc2ccc(F)cc2)C1` is inactive: -13.5%; for `CCc1ccc(-n2c(CCC(=O)O)ccc2-c2cccs2)cc1` it is inactive: 9.51%; for `COc1ccc(-n2ccn(CC(=O)Nc3ccccc3C(F)(F)F)c(=O)c2=O)cc1OC` it is inactive: -8.51%.
As for `CCOc1ccc(NC(=O)c2sc3nc(-c4ccc(OC)cc4)cn3c2C)cc1`, the figure is inactive: -9.56%; as for `Cc1ccccc1NC(=O)Cn1c(=O)n(CCCCCC(=O)NCc2ccc3c(c2)OCO3)c(=O)c2sccc21`, inactive: -22.2%.
With `Cc1c(Cl)cccc1NC(=O)CSc1nc(=O)n(CCN2CCOCC2)c2c1CCC2`, the activation is inactive: -11.4%.
In the case of `COc1ccc(-c2nsc(NC(=O)c3ccccc3Br)n2)cc1`, the activation was inactive: 19.9%.
For the molecule `COc1cc(NC(=O)C2CCCN(S(=O)(=O)c3cn(C)cn3)C2)cc(OC)c1` (stereo not drawn), the activation is inactive: -6.61%.
As for `CCOC(=O)c1cc2c(=O)n3ccccc3nc2n(CC(C)C)c1=NC(=O)C(C)Oc1ccccc1` (stereo not drawn), the figure is inactive: -7.45%; as for `CC(=O)Nc1ccc(NCc2nnc3n2CCCCC3)cc1`, inactive: -8.91%; as for `CCc1ccccc1NC(=O)CCc1c(C)nc2cc(-c3ccccc3)nn2c1C`, inactive: 22.2%.
Turning to `CCOc1ccc(NC(=O)CCS(=O)(=O)c2cc3c4c(c2)CCN4C(=O)CC3)cc1`, the activation is inactive: -13%.
Regarding `Cc1ccc(Nc2ccc(N3CCN(C(=O)c4ccc([N+](=O)[O-])cc4Cl)CC3)nn2)cc1`, the activation was inactive: 24.9%.
The figure for `Cc1nnc(N2CCN(C(=O)Nc3cc(F)ccc3F)CC2)c2nn(-c3ccc(Cl)cc3)c(C)c12` is inactive: 8.41%; for `O=C(NC1CC(=O)N(c2ccc(Cl)cc2)C1)C(=O)c1c[nH]c2ccccc12` (stereo not drawn) it is inactive: 20.2%; for `CC(=O)OC(C)OC(=O)C(C)c1ccc(-c2ccccc2)c(F)c1` (stereo not drawn) it is inactive: 7.81%.
On to `Cc1cccc(C)c1NC(=O)CSc1nc(-c2cccs2)cc(C(F)(F)F)n1`, for which the activation was inactive: -9.84%.
As for `CC(C)NC(=O)CCSc1nc(-c2ccc3c(c2)OCO3)cc(C(F)(F)F)n1`, the figure is inactive: -1.19%; as for `CC(C)CCn1c(SCc2c(F)cccc2Cl)nc2ccsc2c1=O`, inactive: -17.8%.
As for `Cc1cn2c(=O)cc(COc3ccc(C(C)(C)C)cc3)nc2s1`, the figure is inactive: -12.7%; as for `O=C(Nc1ccc(F)c(Cl)c1)C1CCCN(S(=O)(=O)c2cccc3nsnc23)C1` (stereo not drawn), inactive: -2.39%; as for `CCOc1ccccc1N(CC)C(=O)c1ccc2c(=O)n3c(nc2c1)CCCCC3`, inactive: -16.4%.
As for `Nc1nonc1-c1nc2ccccc2n1CC(=O)Nc1ccccc1C(=O)O`, the figure is inactive: -4.11%; as for `CN(c1nccc(=O)[nH]1)C1CCN(c2nc3ccccc3n2Cc2ccc(F)cc2)CC1`, inactive: -3.93%.
For the molecule `CN(C)S(=O)(=O)N1CCC(N2CCN(Cc3ccc(F)cc3)C(=O)C2=O)CC1`, the activation was inactive: -8.07%.
Take `CCOc1ccc(CCNC(=O)CSCc2nc(-c3cccc(C)c3)oc2C)cc1OCC`: the activation was inactive: -12.1%.
As for `N#Cc1ccccc1Cn1c(SCC(=O)NCc2ccccc2)nc2ccccc21`, the figure is inactive: -12.7%.
For `CCc1cccc2c(-c3ccccc3)nc(SCC(=O)Nc3ccc(OC)cc3)nc12`, the activation was inactive: 2.63%.
The figure for `CCOc1ccc2nc(NC(=O)c3nc(SC(C)C)ncc3Cl)sc2c1` is inactive: -11.9%.
As for `C[N+](C)(C)CC(=O)O`, the figure is inactive: -0.955%; as for `CC1CCN(C(=O)Cn2c(=O)n(-c3ccc(Cl)cc3)c(=O)c3c4c(sc32)CCC4)CC1`, inactive: 19.7%; as for `O=C(Cn1c(=O)c2cccn2c2ccc(F)cc21)NCc1cccc(Cl)c1`, inactive: -5.63%.
As for `O=C(O)c1ccccc1C(=O)Nc1ccc(S(=O)(=O)Nc2nccs2)cc1`, the figure is inactive: -5.92%; as for `CN(C)S(=O)(=O)c1ccc(C(=O)N(Cc2cccnc2)c2nc3c(F)cc(F)cc3s2)cc1`, inactive: -1.71%; as for `Cc1cc2nn(-c3ccccc3)nc2cc1NC(=O)Cc1ccc(Cl)cc1`, inactive: -13.1%.
Turning to `CC(C)N(Cc1ccccc1)S(=O)(=O)c1ccc(N2CCCCS2(=O)=O)cc1`, the activation is inactive: 4.16%.
For the molecule `COc1ccccc1NC(=O)C(=O)NCC(c1cccnc1)N1CCc2ccccc2C1` (stereo not drawn), the activation was inactive: -0.94%.
As for `O=C(NCc1ccc(F)cc1)c1ccc2oc(=O)n(Cc3ccccc3)c2c1`, the activation was inactive: 10.5%.
The figure for `COC(=O)c1ccc(NC(=O)CCc2c(C)nn(-c3ccc(N4CCCCC4)nn3)c2C)cc1` is inactive: -20.2%; for `COc1ccc(-n2nc(C(=O)Nc3cc(C)ccn3)c3c4ccccc4n(C)c3c2=O)cc1Cl` it is inactive: 11.8%.
